Source: PubChem BioAssay AID588342 (National Center for Advancing Translational Sciences (NCATS), 2011)
In all, about 360,000 compounds went through this assay and about 25,000 (6.9%) were called active. The shares of active, inactive and inconclusive entries below differ from those in the screen. Calls come from the whole dose curve; as a rule, active = well fitted inhibition curve with a large enough effect; inconclusive = small, poorly fitted or top-dose-only effect; inactive = flat fitted curve, though single readings scatter. Where the call is inconclusive, the potency comes from a doubtful curve fit.
Note: nearly all actives have a fitted effect of over 55% in size.
Potency is the fitted concentration of half-maximal effect; tags give direction and shape of the fitted curve.

The molecules below were run against Luciferin 4-monooxygenase (Photinus pyralis) (UniProt P08659) (assay: qHTS profiling assay for firefly luciferase inhibitor/activator using purifed enzyme and Km concentrations of substrates (counterscreen for miR-21 project)). Conditions: purified FLuc, luminescence inhibition; series mostly up to 57.5 µM.
Chain of UniProt P08659 (P08659 whole entry, looked up): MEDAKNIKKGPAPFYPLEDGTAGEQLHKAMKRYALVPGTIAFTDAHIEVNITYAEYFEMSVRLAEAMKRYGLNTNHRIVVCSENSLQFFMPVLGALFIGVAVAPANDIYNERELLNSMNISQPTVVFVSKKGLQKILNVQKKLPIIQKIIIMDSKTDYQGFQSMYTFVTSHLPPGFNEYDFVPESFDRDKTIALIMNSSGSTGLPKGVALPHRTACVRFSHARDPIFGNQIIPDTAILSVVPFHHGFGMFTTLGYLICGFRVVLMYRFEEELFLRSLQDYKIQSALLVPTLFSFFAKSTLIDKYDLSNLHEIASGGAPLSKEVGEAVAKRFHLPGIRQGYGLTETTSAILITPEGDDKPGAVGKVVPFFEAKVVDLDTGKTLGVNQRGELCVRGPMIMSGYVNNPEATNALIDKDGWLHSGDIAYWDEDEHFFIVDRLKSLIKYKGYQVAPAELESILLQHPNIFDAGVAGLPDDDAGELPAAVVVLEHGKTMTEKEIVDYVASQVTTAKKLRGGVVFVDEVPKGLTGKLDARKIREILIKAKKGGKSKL
Outline: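 Purified P. pyralis luciferase, 10 nM final, with Km-level 10 uM D-luciferin and 10 uM ATP in 50 mM Tris acetate pH 7.5, 10 mM Mg acetate, 0.01% Tween-20, 0.05% BSA; 6-point qHTS titration about 60 µM downward; luminescence read.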
In the case of `COC(=O)c1ccc(NC(=O)CN2C(=O)CC(c3ccccc3)Sc3ccccc32)cc1` (stereo not given), the Potency is reported as inconclusive: 9.53 µM [inhibitor, partial curve, poor fit].
For `CCOC(=O)N1CCC(NC(=O)c2ccc3c(c2)sc2nc(-c4ccccc4)cn23)CC1`, the Potency was inconclusive: 16.9 µM [inhibitor, partial curve].
In the case of `CSc1ccc(-c2nnc(NC(=O)c3ccc4c(c3)OCCO4)o2)cc1`, the Potency is reported as inconclusive: 12 µM [inhibitor, partial curve].
In the case of `COc1cccc(NC(=O)C(=O)NCCCn2ccnc2)c1`, the Potency is reported as inconclusive: 23.9 µM [inhibitor, partial curve, poor fit].
In the case of `CCCCCC(=O)NNC(=O)Nc1ccccc1`, the Potency is reported as “inactive”.
`N#Cc1cc2c(nc1S(=O)(=O)Cc1ccccc1)CCCC2` was tested, and the Potency was “inactive”.
For `COc1ccccc1NC(=O)Cn1nnc(-c2ccccc2NC(=O)c2cc3ccccc3oc2=O)n1`, the Potency was inconclusive: 10.7 µM [inhibitor, partial curve, poor fit].
For `O=[N+]([O-])c1ccc(O)c(/C=N/NC(=S)Nc2ccc(Cl)cc2Cl)c1`, the Potency was inconclusive: 19 µM [inhibitor, single point].
`O=C1OC(Cc2ccccn2)C(O)=C1C1=NCCCCN1` (stereo not given) was tested, and the Potency was inconclusive: 16.9 µM [inhibitor, partial curve].
In the case of `O=C(Cc1nn[nH]n1)NCCC1=CCCCC1`, the Potency is reported as “inactive”.
For `Cc1cc2ccccc2n1CCNC(=O)c1ccc(Br)cc1`, the Potency was inconclusive: 37.9 µM [inhibitor, single point].
`O=C(Nc1cccc(S(=O)(=O)NC2=NCCC2)c1)c1cc(Cl)ccc1[N+](=O)[O-]` was tested, and the Potency was “inactive”.
In the case of `Cc1cc(NCCCn2ccnc2)n2nc(C)c(-c3ccccc3)c2n1`, the Potency is reported as active: 9.53 µM.
`Cc1nnc(SCC(=O)NC(=O)Nc2ccc3c(c2)OCCO3)s1` was tested, and the Potency was inconclusive: 26.9 µM [inhibitor, single point].
With `COc1ccc(CNC(=O)CCc2c(C)c3cc4c(C)c(C)oc4cc3oc2=O)cc1OC` the Potency was “inactive”.
`O=C(NCc1ccco1)c1ccccc1-c1nc(-c2ccccc2)no1` was tested, and the Potency was active: 26.9 µM.
`Cc1csc(NC(=O)c2ccccc2O)n1` was tested, and the Potency was active: 12 µM.
For `CCCCc1c(C)[nH]c2nc3ccccc3n2c1=O`, the Potency was inconclusive: 8.49 µM [inhibitor, partial curve, poor fit].
`O=C(NNS(=O)(=O)c1ccc(Cl)cc1)c1cc(-c2ccccc2)nc2ccccc12` was tested, and the Potency was inconclusive: 37.9 µM [inhibitor, single point].
In the case of `CN1CCC(N(C)C(=O)/C=C/c2cn(-c3ccccc3)nc2-c2cccs2)CC1`, the Potency is reported as inconclusive: 26.9 µM [inhibitor, partial curve, poor fit].
For `CCCC(=O)Nc1nc(C)c(-c2csc(Nc3cc(OC)ccc3OC)n2)s1`, the Potency was inconclusive: 23.9 µM [inhibitor, partial curve, poor fit].
`CCc1ccc(OCC(=O)NC(=S)Nc2ccc(F)cc2)c(Br)c1` was tested, and the Potency was inconclusive: 10.7 µM [inhibitor, partial curve].
`O=c1c(Cl)c(NS(=O)(=O)c2ccccc2)cnn1-c1ccccc1` was tested, and the Potency was inconclusive: 37.9 µM [inhibitor, partial curve, poor fit].
`Fc1ccc2nc(Nc3ccccc3)sc2c1` was tested, and the Potency was active: 7.57 µM.
In the case of `CC(=O)c1c(C)[nH]c(C(=O)OCn2nnc3ccccc3c2=O)c1C`, the Potency is reported as “inactive”.
For `COc1ccc(OC)c(CNC(=O)c2nn(C)c3c2CS(=O)(=O)c2ccccc2-3)c1`, the Potency was “inactive”.
With `O=C(COc1ccc(Br)cc1CNCCCN1CCOCC1)Nc1ccccc1` the Potency was “inactive”.
`Cc1ccc2c(C(=O)CN3CCCC(C)C3)c(C)[nH]c2c1` (stereo not given) was tested, and the Potency was “inactive”.
In the case of `O=C(NNC(=O)c1ccccc1OCc1ccc(F)cc1)c1ccccc1O`, the Potency is reported as active: 26.9 µM.
In the case of `N#Cc1c(N)nc(-c2ccccc2)nc1-c1ccccc1`, the Potency is reported as “inactive”.
For `CC(=O)N1CC(C)Sc2ccc(S(=O)(=O)NCCc3ccccc3)cc21` (stereo not given), the Potency was inconclusive: 21.3 µM [inhibitor, partial curve, poor fit].
With `OC1CCCN(Cc2ccc3c(c2)Cc2ccccc2-3)C1` (stereo not given) the Potency was inconclusive: 26.9 µM [inhibitor, single point].
In the case of `Cc1cccc(OCCNc2cc(N3CCN(CCO)CC3)ccc2[N+](=O)[O-])c1`, the Potency is reported as inconclusive: 23.9 µM [inhibitor, partial curve].
In the case of `COc1ccc(SCC(=O)Nc2ccc(N3CCN(C)CC3)c(F)c2)cc1`, the Potency is reported as inconclusive: 37.9 µM [inhibitor, partial curve, poor fit].
In the case of `COc1ccc(CNc2cc(C)ccn2)cc1`, the Potency is reported as inconclusive: 23.9 µM [inhibitor, single point].
`CCc1ccc(-n2c(C)cc(/C=N/NC(=O)OC)c2C)cc1` was tested, and the Potency was active: 19 µM.
In the case of `CC1(C)CC(=O)C(=Cc2cn(CCC#N)nc2-c2ccc(Cl)cc2)C(=O)C1`, the Potency is reported as inconclusive: 26.9 µM [inhibitor, partial curve, poor fit].
For `O=C(N/N=C/c1ccco1)c1ccccc1OCc1ccccc1Cl`, the Potency was inconclusive: 26.9 µM [inhibitor, partial curve, poor fit].
`CCN(CC)CCN1C(=O)C(=O)/C(=C(/O)c2ccc(OC)cc2)C1c1cccs1` (stereo not given) was tested, and the Potency was inconclusive: 33.8 µM [inhibitor, partial curve, poor fit].
In the case of `Cc1nc(NNC(=O)c2ccccc2)cc(-c2ccccc2)n1`, the Potency is reported as inconclusive: 26.9 µM [inhibitor, partial curve, poor fit].
With `Cc1ccc(NC2=C(N3CCCCC3)C(=O)c3ccccc3C2=O)cc1` the Potency was inconclusive: 23.9 µM [inhibitor, partial curve].
In the case of `O=C(Nc1nc2ccccc2[nH]1)C1CCCO1` (stereo not given), the Potency is reported as inconclusive: 37.9 µM [inhibitor, single point].
`O=C(NC(=S)NCCC1=CCCCC1)c1ccc(Br)o1` was tested, and the Potency was inconclusive: 23.9 µM [inhibitor, partial curve].
With `O=C(NCCc1ccccc1)c1ccc(Cn2c(SCc3ccccc3F)nc3cccnc32)cc1` the Potency was active: 5.36 µM.
With `CN(C)c1ccc(N2CC(C)(C)C2=O)cc1` the Potency was inconclusive: 37.9 µM [inhibitor, partial curve, poor fit].
